Experimental data taken from PubChem BioAssay AID743286 (National Center for Advancing Translational Sciences (NCATS), 2014).
Screen size: about 1,100 compounds; about 340 (31%) were called active. Inconclusive means that the source gave no clear call. Such entries were picked first, then a sample of the others. The call rests on the fitted dose curve; in most records, active means well fitted inhibition curve with a large enough effect; inconclusive means small, poorly fitted or top-dose-only effect; inactive means flat fitted curve, though single readings scatter. Potencies beside an inconclusive call are fits to weak or partial responses and may not hold up.

molecular target: Phosphatidylinositol 5-phosphate 4-kinase type-2 alpha (Homo sapiens) (UniProt P48426); experiment: qHTS for Inhibitors of PI5P4K: Confirmation in Primary Assay; details: PI5P4Kalpha enzyme, ADP-Glo luminescence, 60 min; activity change, negative = inhibition: at 76.9 µM (top of the series); further: nearly all actives have a fitted effect of over 65% in size
Procedure, shortened: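 Human PI5P4Kα activity was measured as ADP generation using ADP-Glo luminescence. Reactions ran 60 minutes at room temperature with 5 microM ATP in buffered conditions at pH 7.4 containing 5% DMSO.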
On the % scale 0 is the no-effect control and ±100 the full control effect; potency means the concentration at half of the fitted maximal effect; tags describe the fitted curve by direction and shape.

Chain of UniProt P48426 (P48426 whole entry, looked up): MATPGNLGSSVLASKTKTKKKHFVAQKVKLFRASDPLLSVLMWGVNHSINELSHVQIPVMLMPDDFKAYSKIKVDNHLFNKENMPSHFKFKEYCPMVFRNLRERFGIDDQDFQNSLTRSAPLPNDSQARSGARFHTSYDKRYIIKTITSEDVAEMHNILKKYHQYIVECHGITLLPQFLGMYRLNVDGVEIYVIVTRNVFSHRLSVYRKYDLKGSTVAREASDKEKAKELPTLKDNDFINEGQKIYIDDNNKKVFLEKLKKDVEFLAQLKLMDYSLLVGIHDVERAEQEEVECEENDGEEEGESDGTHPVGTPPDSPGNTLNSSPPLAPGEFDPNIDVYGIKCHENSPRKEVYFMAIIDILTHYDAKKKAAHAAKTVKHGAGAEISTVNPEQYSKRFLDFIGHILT

Potency, active:
O=C(NCc1ccco1)c1cc2ccc(O)cc2oc1=O 14.1 µM
Cc1ccc(NC(=O)CN(C)C(=O)c2cc(-c3ccco3)nc3ccccc23)cc1 8.91 µM
CC1=NN(c2nc(-c3ccc(Cl)cc3)cs2)C(=O)C1 15.8 µM
COc1ccc(NC(=O)CSc2sc3c(O)cc(=O)[nH]c3c2C#N)c(OC)c1 14.1 µM
COc1ccc(OC)c(NC(=O)COC(=O)c2cc3c(s2)CCC3)c1 12.6 µM
C[C@H](NC(=O)c1cc2c(cn1)[nH]c1ccccc12)C(=O)O 10 µM
NS(=O)(=O)c1ccc(CCNC(=O)c2ccc3nccnc3c2)cc1 14.1 µM
Nc1c(C(=O)O)cnc2c(-c3ccc(Cl)cc3)cnn12 6.31 µM
CCn1c(SCc2nc3sc(C(=O)O)c(C)c3c(=O)[nH]2)nc2ccccc21 12.6 µM

Potency, inconclusive:
COc1ccc(Cc2c(-c3ccco3)nc3ccc(Br)cn23)c(C)c1 5.01 µM [inhibitor, partial curve]
COc1ccc(S(=O)(=O)N2CCOCC2)cc1NC(=O)c1cccc(-n2cccc2)c1 7.94 µM [inhibitor, partial curve]
Cc1cc(NC(=O)CSc2nc3[nH]c(=O)cc(O)c3s2)ccc1Br 35.5 µM [inhibitor, partial curve]
CC(=O)Cn1nnc2sc(-c3ccccc3)cc2c1=O 25.1 µM [inhibitor, partial curve]
O=c1oc2ccccc2cc1-c1csc(Nc2nc3c(F)cccc3s2)n1 11.2 µM [inhibitor, partial curve]
O=C(CSc1ccccc1)Nc1nnc(COc2ccc(Cl)cc2)s1 15.8 µM [inhibitor, partial curve]
COc1ccc(-c2cc(CNc3nc(NC(C)C)nc4cc(-c5ccccc5)sc34)on2)cc1 12.6 µM [inhibitor, partial curve]
c1ccc(Cc2nnc3sc(-c4ccco4)nn23)cc1 15.8 µM [inhibitor, partial curve]
COc1cccc(Nc2nnc(SCC(=O)Nc3sccc3C(N)=O)s2)c1 28.2 µM [inhibitor, partial curve]
Cc1oc2ccc(OCc3c(F)cccc3Cl)cc2c1C(=O)O 15.8 µM [inhibitor, partial curve]
Cc1ccc(NC(=O)c2cc(NC(=O)c3ccccc3C(=O)O)ccc2N2CCCCC2)cc1 20 µM [inhibitor, partial curve]
CCOc1ccc(C(=O)c2cc3ccc(O)cc3oc2=O)cc1 15.8 µM [inhibitor, partial curve]
NC(Cc1ccc(C(F)(F)F)cc1)c1csc(NC(=O)Nc2ccccc2)n1 (stereo unspecified) 35.5 µM [inhibitor, single point]
COc1ccc(-c2nnc(C)c3nocc23)cc1 12.6 µM [inhibitor, partial curve]
COCCN(C(=O)COC(=O)Cc1coc2cc3c(cc12)CCC3)c1c(N)n(Cc2ccccc2)c(=O)[nH]c1=O 31.6 µM [inhibitor, partial curve]
Cc1ccc(C)c2[nH]c(=O)c(CCNC(=O)c3ccc(S(=O)(=O)N4CCOCC4)cc3)cc12 35.5 µM [inhibitor, partial curve]
Cc1ccc(NC2Sc3ccccc3NC2=O)cc1 (stereo unspecified) 22.4 µM [inhibitor, partial curve]
c1ccc(-c2cc3nc(NCc4cccs4)nc(NCc4ccc5occc5c4)c3s2)cc1 12.6 µM [inhibitor, partial curve]
COc1ccccc1C(=O)Nc1ccc(C(=O)Nc2ccccc2C(=O)O)cc1 20 µM [inhibitor, partial curve, poor fit]
Cc1nn(-c2nc3ccccc3[nH]2)c(=O)c2ccccc12 15.8 µM [inhibitor, partial curve]
CCN(CC(=O)N1CCC(C(N)=O)CC1)S(=O)(=O)c1cc(Cl)ccc1Cl 28.2 µM [inhibitor, single point]
Cc1ccc(Cc2c(-c3ccco3)nc3ccc(Cl)cn23)cc1 7.08 µM [inhibitor, full curve, poor fit]
O=C(CCC(=O)c1cccs1)Nc1ccc(N2CCCCC2)cc1 15.8 µM [inhibitor, partial curve]
CCS(=O)(=O)N1Cc2ccccc2CC1C(=O)Nc1nnc(SCc2ccc(C#N)cc2)s1 (stereo unspecified) 12.6 µM [inhibitor, partial curve]
COc1ccc(CNC(=O)Cc2ccc(NC(=O)C3=C(C)OCCS3)cc2)cc1 35.5 µM [inhibitor, partial curve]
O=C(OCc1ccco1)c1ccc(S(=O)(=O)N2CCCCC2)cc1 17.8 µM [inhibitor, partial curve]

Activity change, negative = inhibition, inactive:
Cc1cc(C)c2c(N)c(C(=O)Nc3c(C)n(C)n(-c4ccccc4)c3=O)sc2n1 2%
O=C(Nc1ccc(Cl)cc1)Nc1ccccc1CC[N+](=O)[O-] -4.4%
O=C1NN=C2CCCCCC12 (stereo unspecified) 3.7%
Cc1ccc(S(=O)c2ccc(NC(=O)C3CC3)cc2C#N)cc1 (stereo unspecified) 0.926%
Cc1ccc(N(C(=O)CNC(=O)c2ccco2)C(C(=O)NC2CCCC2)c2cccnc2)c(C)c1 (stereo unspecified) 0.488%
Cn1c(=O)c2c(-c3ccccc3)n(-c3cccc(O)c3)cc2n(C)c1=O -7.76%
Cn1c(=O)oc2cc(S(=O)(=O)Nc3ccccc3)ccc21 -5.26%
Cc1ccc(C)c(OC(C)C(=O)Nc2ccc(S(=O)(=O)Nc3nccs3)cc2)c1 (stereo unspecified) -10.6%
CC(C)OC(=O)c1c(NS(=O)(=O)c2ccccc2)sc2c1CCCC2 1.37%
O=C1NC(c2cccs2)Nc2ccccc21 (stereo unspecified) -12.8%
COc1ccc(S(=O)(=O)N(C(=O)c2ccco2)c2cc3sc(=O)oc3c3ccccc23)cc1 -19.6%
